# Results reported in the supplement of paper PMC7826260.
# Some of the results follow. Viral Rep nickase domains cut single-stranded DNA in vitro (3 µM enzyme, 1 h, 37 °C); shown is the middle of each 90-letter strand. Uncut reads are compared with the no-enzyme pool on a log2 scale; the lower, the more was cut; hits are not called. Counts are relative to all reads, so uncut sequences can rise above 0 when many others are cut.
# Test system: T1, Rep nickase domain of porcine circovirus 2
# T1 sequence (Rep 2-116, printed without the tag): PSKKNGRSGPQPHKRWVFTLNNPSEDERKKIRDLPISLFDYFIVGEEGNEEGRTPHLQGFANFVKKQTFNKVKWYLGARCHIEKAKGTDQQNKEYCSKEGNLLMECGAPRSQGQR
# Assay: uncleaved DNA left, log2 of reads against the no-enzyme library (log2 ratio); higher = less cleavage (more negative = more Rep cleavage of the k-mer); sequences stand for … in CTCGTCCG…ACCGGAGA
# Protocol: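 A pool of 90-nt single-stranded DNAs with seven random bases just before the constant AC of the nick site (name = the seven bases) was cut by 3 µM recombinant His6-SUMO-tagged Rep nickase domain (300 nM DNA, 50 mM HEPES pH 8.0, 50 mM NaCl, 1 mM MnCl2, 1 h, 37 °C, three replicates). Uncut DNA was amplified and sequenced.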
row,Sequence,uncleaved DNA left (log2)
1,GTTTCTG,0.0087
2,ACGGCGT,0.051
3,ATGAAGT,-0.00681
4,GAAATTT,-1.83
5,GACTAAT,-2.78
6,CAGACGG,0.179
7,CGTCGTT,-0.816
8,CCGTGCG,0.115
9,CACTCGC,-0.114
10,AGGGTCA,-0.0546
11,ATGTCTC,-0.384
12,CTAATTG,0.234
13,GGTAGGT,0.158
14,GTAGCAC,-0.0899
15,GTTTGAT,-0.109
16,GCGCGCG,0.18
17,CTAGGCA,0.0608
18,TTGGGTT,-0.0811
19,CACCCGT,-0.232
20,ACTAAGG,0.153

row,Sequence,uncleaved DNA left (log2)
1,CCAACAG,0.12
2,TGATACG,-0.105
3,TTCTCGC,-0.0379
4,TACCGCG,-0.312
5,GCGGCTT,-0.0583
6,CACAATC,0.0941
7,GATTTAG,0.116
8,AACTTCC,-3.21
9,CATCACT,-1.47
10,TGTACAT,0.176
11,AGCTTGT,-0.369
12,CGCCGTC,-0.0999
13,CGGCTTC,0.0154
14,ATAGCCC,0.0319
15,CCATGCT,-0.74
16,CTACCAT,-0.788
17,AGGTTGG,0.116
18,TCACGCA,-0.103
19,ACGTGAG,0.112
20,CGCCTCG,0.116
